{
  "source": "PubChem BioAssay AID894",
  "about": "(National Center for Advancing Translational Sciences (NCATS), 2007)",
  "note": "Screen size: about 150,000 compounds; about 6,500 (4.3%) were called active. The inconclusive results got no clear call from the source; some entries with a clear call stand among them for comparison. Calls follow the shape of the dose curve; as a rule, active = well fitted inhibition curve with a large enough effect (not every such curve was filed as active); inconclusive = small, poorly fitted or top-dose-only effect, or another doubt; inactive = no such curve, though single readings can be large or run the other way. No potency is given beside an inconclusive call; the fits are too rough. % is scaled to controls: 0 for no effect and ±100 for the full control effect; potency is read from the fitted curve at half-maximal effect; tags tell the direction and shape of the fitted curve.",
  "data": [
    {"molecular_target": "15-hydroxyprostaglandin dehydrogenase [NAD(+)] (Homo sapiens) (UniProt P15428)", "sequence (P15428 whole entry, looked up)": "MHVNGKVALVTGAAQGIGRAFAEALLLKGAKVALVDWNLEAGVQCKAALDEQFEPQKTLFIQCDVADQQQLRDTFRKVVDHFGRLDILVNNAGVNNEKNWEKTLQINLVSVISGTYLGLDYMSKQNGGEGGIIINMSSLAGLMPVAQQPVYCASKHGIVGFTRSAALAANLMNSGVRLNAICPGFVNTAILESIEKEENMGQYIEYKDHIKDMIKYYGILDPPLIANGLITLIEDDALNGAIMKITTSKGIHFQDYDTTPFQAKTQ", "assay": "qHTS Assay for Inhibitors of HPGD (15-Hydroxyprostaglandin Dehydrogenase)", "conditions": "purified HPGD, NADH fluorescence kinetic, PGE2 substrate; activity change, negative = inhibition: hits give low values", "method_in_brief": "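20 nM HPGD preincubated 15 min at room temperature with compound in 50 mM Tris-HCl pH 8, 0.01% Tween 20. Started with 1 mM NAD+ and 30 uM prostaglandin E2; NADH fluorescence (360/450 nm) read 5 times over 30-s intervals, last minus first.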", "values": [
      {"smiles": "CCNC(=S)N(CCc1cccc(C)c1)Cc1cc2cc(OC)c(OC)cc2[nH]c1=O", "Potency": "inconclusive [inhibitor, partial curve]"},
      {"smiles": "O=C(c1ccc2c(c1)OCCCO2)c1cccs1", "Potency": "active: 14.1 µM"},
      {"smiles": "O=C(O)c1ccc(N2C(=O)CC(SC(=Nc3ccccc3)Nc3ccccc3)C2=O)cc1", "note": "(configuration not stated)", "activity change, negative = inhibition": "inactive: -9.71%"},
      {"smiles": "CCc1cccc(Nc2cc(C)nc3nc(C)nn23)c1", "activity change, negative = inhibition": "inactive: -17.8%"},
      {"smiles": "CCOC(=O)c1[nH]c2ccccc2c1NC(=S)Nc1cc(C)ccc1C", "Potency": "inconclusive [inhibitor, partial curve]"},
      {"smiles": "Cc1cc2cc(CNC(=O)c3ccc(C)c([N+](=O)[O-])c3)ccc2[nH]1", "Potency": "inconclusive [inhibitor, partial curve, poor fit]"},
      {"smiles": "O=C(O)CCCC(=O)Nc1ccc(C(=O)N2CCCCC2)cc1", "Potency": "active: 2.24 µM"},
      {"smiles": "COc1cc(/C=N/NC(=O)c2ccoc2C)cc(OC)c1O", "Potency": "inconclusive [inhibitor, partial curve]"},
      {"smiles": "C/C=C/Cn1c(SCc2ccc(Cl)cc2)nc2c1c(=O)[nH]c(=O)n2C", "Potency": "inconclusive [inhibitor, single point]"},
      {"smiles": "O=C(O)c1ccccc1C(=O)Nc1n[nH]c(=S)s1", "Potency": "active: 8.91 µM"},
      {"smiles": "CC(C)n1nnnc1SCC(=O)NCc1cccs1", "activity change, negative = inhibition": "inactive: -15.7%"},
      {"smiles": "Cc1ccc(C(=O)NCC2CCCO2)cc1N1CCCC1=O", "note": "(configuration not stated)", "Potency": "active: 11.2 µM"},
      {"smiles": "FC(F)(F)c1ccc(Cl)c(NC(=S)NC2CC2)c1", "activity change, negative = inhibition": "inactive: 1.09%"},
      {"smiles": "COCCNc1cc(-c2ccccc2C(F)(F)F)ncn1", "activity change, negative = inhibition": "inactive: -12%"},
      {"smiles": "C#CCSc1nc(-c2cccs2)ccc1C#N", "Potency": "inconclusive [inhibitor, partial curve]"},
      {"smiles": "COC(=O)CN1C(=O)C(O)(CC(=O)c2ccccc2)c2ccccc21", "note": "(configuration not stated)", "activity change, negative = inhibition": "inactive: -4.64%"},
      {"smiles": "Cc1ccc2nc(NCc3ccccc3)[nH]c2c1", "activity change, negative = inhibition": "inactive: -0.521%"},
      {"smiles": "Cc1ccc(S(=O)(=O)N(C)c2ccc(C(=O)N3CCCCC3)cc2)cc1", "Potency": "active: 0.398 µM"},
      {"smiles": "CC(C)C(=O)N(c1cc2sc(=O)oc2c2ccccc12)S(=O)(=O)c1cccs1", "activity change, negative = inhibition": "inactive: -23.2%"},
      {"smiles": "CCC(=O)c1cc2c(cc1NC(=O)c1cccs1)OCCO2", "Potency": "inconclusive [inhibitor, partial curve]"},
      {"smiles": "Cc1occc1C(=O)N1CCN(C(=O)C2CCCO2)CC1", "note": "(configuration not stated)", "activity change, negative = inhibition": "inactive: -8.48%"},
      {"smiles": "O=C(N/N=C/c1ccc2c(c1)OCO2)/C(=C/c1ccc2c(c1)OCO2)NC(=O)c1ccccc1", "Potency": "inconclusive [inhibitor, single point]"},
      {"smiles": "CCN(CC)S(=O)(=O)c1ccc(Cl)c(NC(=O)COC(=O)/C=C/c2cc(OC)c(OC)c(OC)c2)c1", "Potency": "inconclusive [inhibitor, partial curve]"},
      {"smiles": "O=C(NCC1CCCO1)C1CC(c2ccccc2Cl)=NO1", "note": "(configuration not stated)", "Potency": "active: 20 µM"},
      {"smiles": "C=C(C)CSc1nc2ncccc2[nH]1", "Potency": "inconclusive [inhibitor, partial curve]"},
      {"smiles": "CC(C)C(NS(=O)(=O)c1ccc2c3c(cccc13)C(=O)N2)C(=O)O", "note": "(configuration not stated)", "Potency": "inconclusive [inhibitor, partial curve]"},
      {"smiles": "Clc1ccccc1CSc1nnc(-c2cccnc2)n1Cc1ccco1", "Potency": "active: 28.2 µM"},
      {"smiles": "CCN(CC)CCn1c(-c2ccccc2)nc2c(NCCOC)nc(C)nc21", "Potency": "inconclusive [inhibitor, partial curve]"},
      {"smiles": "O=C(c1ccc(N2CCCCS2(=O)=O)cc1)N1CCN(c2ccc(N3CCOCC3)nn2)CC1", "Potency": "inconclusive [inhibitor, single point]"},
      {"smiles": "COc1ccc(CCn2c(=S)[nH]c3cc(C(=O)NCc4ccco4)ccc3c2=O)cc1OC", "Potency": "inconclusive [inhibitor, partial curve, poor fit]"},
      {"smiles": "CCCCCC1=C(C(=O)OC)C(C(=O)OCC)N(S(=O)(=O)C(F)(F)F)c2ccccc21", "note": "(configuration not stated)", "activity change, negative = inhibition": "inactive: -16%"},
      {"smiles": "COc1ccc(-n2nnc3c(=O)n(C/C=C/c4ccccc4)cnc32)cc1", "Potency": "inconclusive [inhibitor, single point]"},
      {"smiles": "O=C(CCCc1nc(-c2ccccc2)no1)NCc1cccnc1", "activity change, negative = inhibition": "inactive: -13.8%"},
      {"smiles": "O=C(NCCCn1ccnc1)c1cc(S(=O)(=O)N2CCOCC2)c(Cl)cc1Cl", "Potency": "inconclusive [inhibitor, single point]"},
      {"smiles": "CCCCc1cc(O)c(CCCC)c(O)c1", "Potency": "inconclusive [inhibitor, partial curve]"},
      {"smiles": "COc1ccc(C2NC(=O)c3ccccc3N2)cc1OC", "note": "(configuration not stated)", "Potency": "inconclusive [inhibitor, partial curve]"},
      {"smiles": "Cc1nc2c(C(=O)NCc3ccccc3Cl)c[nH]n2c(=O)c1Cl", "Potency": "inconclusive [inhibitor, partial curve]"},
      {"smiles": "S=c1nc(-c2ccccc2)oc2c1CCCC2", "Potency": "inconclusive [inhibitor, partial curve]"},
      {"smiles": "COc1cccc(-c2cc(C(F)(F)F)nc(N3CCC(C)CC3)n2)c1", "Potency": "inconclusive [inhibitor, single point]"},
      {"smiles": "CCc1cc(-c2n[nH]c(=S)n2N)n(C)n1", "Potency": "inconclusive [inhibitor, single point]"},
      {"smiles": "O=c1[nH]c(-c2ccc(Cl)cc2)nc2c1cnn2-c1ccccc1", "Potency": "inconclusive [inhibitor, partial curve]"},
      {"smiles": "COc1ccc(CONS(=O)(=O)c2ccc(NC(C)=O)cc2)cc1Cl", "activity change, negative = inhibition": "inactive: -9.27%"},
      {"smiles": "Cc1cccnc1NC(=O)c1ccc2nc(N)sc2c1", "Potency": "inconclusive [inhibitor, partial curve]"},
      {"smiles": "Cc1nnc(SCC(=O)Nc2cccc(S(=O)(=O)N(C)c3ccccc3)c2)s1", "Potency": "active: 0.0224 µM"},
      {"smiles": "CCC(=O)Nc1cc(C)c(NC(=O)c2ccccc2OC)cn1", "Potency": "inconclusive [inhibitor, single point]"},
      {"smiles": "COc1ncc2nc(-c3ccccc3)c(=O)n(C[C@H]3CCCO3)c2n1", "Potency": "inconclusive [inhibitor, partial curve]"},
      {"smiles": "COc1cc(OC)c2c(-c3cccc(-c4cccc(C)c4)c3)cc(=O)oc2c1", "Potency": "inconclusive [inhibitor, full curve, poor fit]"}
    ]}
  ]
}
